# In the supplement of paper PMC8728848:
# The other results are listed elsewhere or left out.
# Legend:
# Test in all cases: glycan array binding signal (z-score within array); higher = stronger binding
# Conditions in all cases: glycan notation: IUPAC condensed, linker removed
# Kdn(a2-3)Gal(b1-4)Glc = molecular target: Kdn(a2-3)Gal(b1-4)Glc
# How it was run: (§1)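 Glycan array binding is given as a within-array Z-score, which can be read as non-binding when negative. The arrays, 3228 of them, came from the Consortium for Functional Glycomics database and were retained only where the protein sequence was available. Z-scores were averaged across arrays of the same protein sequence at different concentrations or buffers and across linkers.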
# Kdn(a2-3)Gal(b1-4)GlcNAc = molecular target: Kdn(a2-3)Gal(b1-4)GlcNAc
# How it was run: as §1
# [1] = molecular target: Kdn(a2-3)Gal(b1-4)[Fuc(a1-3)]GlcNAc
# How it was run: as §1
# Kdn(a2-6)Gal(b1-4)GlcNAc = molecular target: Kdn(a2-6)Gal(b1-4)GlcNAc
# How it was run: as §1
# [2] = molecular target: Man(a1-2)Man(a1-2)Man(a1-3)Man
# How it was run: as §1
# [3] = molecular target: Man(a1-2)Man(a1-2)Man(a1-6)[Man(a1-3)]Man
# How it was run: as §1
# Man(a1-2)Man(a1-3)Man = molecular target: Man(a1-2)Man(a1-3)Man
# How it was run: as §1
# [4] = molecular target: Man(a1-2)Man(a1-3)[Man(a1-2)Man(a1-6)]Man
# How it was run: as §1
# [5] = molecular target: Man(a1-2)Man(a1-3)[Man(a1-2)Man(a1-6)]Man(a1-6)[Man(a1-2)Man(a1-2)Man(a1-3)]Man
# How it was run: as §1
# [6] = molecular target: Man(a1-2)Man(a1-3)[Man(a1-2)Man(a1-6)]Man(a1-6)[Man(a1-2)Man(a1-2)Man(a1-3)]Man(b1-4)GlcNAc(b1-4)GlcNAc
# How it was run: as §1
# [7] = molecular target: Man(a1-2)Man(a1-3)[Man(a1-6)]Man(a1-6)[Man(a1-2)Man(a1-3)]Man(b1-4)GlcNAc(b1-4)GlcNAc
# How it was run: as §1
# [8] = molecular target: Man(a1-2)Man(a1-6)[Man(a1-3)]Man(a1-6)[Man(a1-2)Man(a1-2)Man(a1-3)]Man
# How it was run: as §1
# [9] = molecular target: Man(a1-2)Man(a1-6)[Man(a1-3)]Man(a1-6)[Man(a1-2)Man(a1-2)Man(a1-3)]Man(b1-4)GlcNAc(b1-4)GlcNAc
# How it was run: as §1
# Man(a1-3)[Man(a1-6)]Man = molecular target: Man(a1-3)[Man(a1-6)]Man
# How it was run: as §1
# [10] = molecular target: Man(a1-3)[Man(a1-6)]Man(a1-6)[Man(a1-2)Man(a1-3)]Man(b1-4)GlcNAc(b1-4)GlcNAc
# How it was run: as §1
# [11] = molecular target: Man(a1-3)[Man(a1-6)]Man(a1-6)[Man(a1-3)]Man
# How it was run: as §1
# [12] = molecular target: Man(a1-3)[Man(a1-6)]Man(a1-6)[Man(a1-3)]Man(b1-4)GlcNAc(b1-4)GlcNAc
# How it was run: as §1
# [13] = molecular target: Man(a1-3)[Man(a1-6)]Man(b1-4)GlcNAc(b1-4)GlcNAc
# How it was run: as §1
# [14] = molecular target: Man(a1-3)[Man(a1-6)]Man(b1-4)GlcNAc(b1-4)[Fuc(a1-6)]GlcNAc
# How it was run: as §1
# Man(a1-6)Man = molecular target: Man(a1-6)Man
# How it was run: as §1
# Man(b1-4)GlcNAc = molecular target: Man(b1-4)GlcNAc
# How it was run: as §1
# MurNAc(b1-4)GlcNAc = molecular target: MurNAc(b1-4)GlcNAc
# How it was run: as §1
# Neu5Ac(a2-3)Gal = molecular target: Neu5Ac(a2-3)Gal
# How it was run: as §1
# [15] = molecular target: Neu5Ac(a2-3)Gal(b1-3)GalNAc
# How it was run: as §1
# [16] = molecular target: Neu5Ac(a2-3)Gal(b1-3)GalNAc(b1-3)Gal(a1-4)Gal(b1-4)Glc
# How it was run: as §1
# [17] = molecular target: Neu5Ac(a2-3)Gal(b1-3)GalNAc(b1-4)Gal(b1-4)Glc
# How it was run: as §1
# [18] = molecular target: Neu5Ac(a2-3)Gal(b1-3)GalNAc(b1-4)[Neu5Ac(a2-3)]Gal(b1-4)Glc
# How it was run: as §1
# [19] = molecular target: Neu5Ac(a2-3)Gal(b1-3)GalNAc(b1-4)[Neu5Ac(a2-8)Neu5Ac(a2-3)]Gal(b1-4)Glc
# How it was run: as §1
# [20] = molecular target: Neu5Ac(a2-3)Gal(b1-3)GalNAc6S
# How it was run: as §1
# [21] = molecular target: Neu5Ac(a2-3)Gal(b1-3)GlcNAc
# How it was run: as §1
# [22] = molecular target: Neu5Ac(a2-3)Gal(b1-3)GlcNAc(b1-2)Man
# How it was run: as §1
# [23] = molecular target: Neu5Ac(a2-3)Gal(b1-3)GlcNAc(b1-2)Man(a1-3)[GlcNAc(b1-4)][Neu5Ac(a2-3)Gal(b1-3)GlcNAc(b1-2)Man(a1-6)]Man(b1-4)GlcNAc(b1-4)GlcNAc
# How it was run: as §1
# [24] = molecular target: Neu5Ac(a2-3)Gal(b1-3)GlcNAc(b1-2)Man(a1-3)[Neu5Ac(a2-3)Gal(b1-3)GlcNAc(b1-2)Man(a1-6)]Man(b1-4)GlcNAc(b1-4)GlcNAc
# How it was run: as §1
# [25] = molecular target: Neu5Ac(a2-3)Gal(b1-3)GlcNAc(b1-2)[Neu5Ac(a2-3)Gal(b1-3)GlcNAc(b1-4)]Man(a1-6)[Neu5Ac(a2-3)Gal(b1-3)GlcNAc(b1-2)Man(a1-3)]Man(b1-4)GlcNAc(b1-4)GlcNAc
# How it was run: as §1
# [26] = molecular target: Neu5Ac(a2-3)Gal(b1-3)GlcNAc(b1-3)Gal(b1-3)GlcNAc
# How it was run: as §1
# [27] = molecular target: Neu5Ac(a2-3)Gal(b1-3)GlcNAc(b1-3)Gal(b1-4)GlcNAc
# How it was run: as §1
# [28] = molecular target: Neu5Ac(a2-3)Gal(b1-3)GlcNAc(b1-3)GalNAc
# How it was run: as §1
# [29] = molecular target: Neu5Ac(a2-3)Gal(b1-3)GlcNAc(b1-6)GalNAc
# How it was run: as §1
binder,measurement,setting,value
SAOUHSC 00176 (Staphylococcus aureus) (protein) MSKILKCITLAVVMLLIVTACGPNRSKEDIDKALNKDNSKDKPNQLTMWVDGDKQMAFYKKITDQYTKKTGIKVKLVNIGQNDQLENISLDAPAGKGPDIFFLAHDNTGSAYLQGLAAEIKLSKDELKGFNKQALKAMNYDNKQLALPAIVETTALFYNKKLVKNAPQTLEEVEANAAKLTDSKKKQYGMLFDAKNFYFNYPFLFGNDDYIFKKNGSEYDIHQLGLNSKHVVKNAERLQKWYDKGYLPKAATHDVMIGLFKEGKVGQFVTGPWNINEYQETFGKDLGVTTLPTDGGKPMKPFLGVRGWYLSEYSKHKYWAKDLMLYITSKDTLQKYTDEMSEITGRVDVKSSNPNLKVFEKQARHAEPMPNIPEMRQVWEPMGNASIFISNGKNPKQALDEATNDITQNIKILHPSQNDKKGD,glycan array binding signal (z-score),Kdn(a2-3)Gal(b1-4)Glc,0.079
same,glycan array binding signal (z-score),Kdn(a2-3)Gal(b1-4)GlcNAc,-0.143
same,glycan array binding signal (z-score),[1],-0.086
same,glycan array binding signal (z-score),Kdn(a2-6)Gal(b1-4)GlcNAc,-0.125
same,glycan array binding signal (z-score),[2],-0.163
same,glycan array binding signal (z-score),[3],-0.025
same,glycan array binding signal (z-score),Man(a1-2)Man(a1-3)Man,-0.027
same,glycan array binding signal (z-score),[4],-0.174
same,glycan array binding signal (z-score),[5],-0.112
same,glycan array binding signal (z-score),[6],-0.163
same,glycan array binding signal (z-score),[7],-0.172
same,glycan array binding signal (z-score),[8],-0.135
same,glycan array binding signal (z-score),[9],0.033
same,glycan array binding signal (z-score),Man(a1-3)[Man(a1-6)]Man,-0.063
same,glycan array binding signal (z-score),[10],-0.058
same,glycan array binding signal (z-score),[11],-0.002
same,glycan array binding signal (z-score),[12],-0.003
same,glycan array binding signal (z-score),[13],-0.123
same,glycan array binding signal (z-score),[14],-0.141
same,glycan array binding signal (z-score),Man(a1-6)Man,-0.086
same,glycan array binding signal (z-score),Man(b1-4)GlcNAc,0.094
same,glycan array binding signal (z-score),MurNAc(b1-4)GlcNAc,-0.1
same,glycan array binding signal (z-score),Neu5Ac(a2-3)Gal,-0.179
same,glycan array binding signal (z-score),[15],-0.087
same,glycan array binding signal (z-score),[16],-0.129
same,glycan array binding signal (z-score),[17],-0.122
same,glycan array binding signal (z-score),[18],0.032
same,glycan array binding signal (z-score),[19],-0.118
same,glycan array binding signal (z-score),[20],-0.132
same,glycan array binding signal (z-score),[21],-0.106
same,glycan array binding signal (z-score),[22],-0.127
same,glycan array binding signal (z-score),[23],-0.089
same,glycan array binding signal (z-score),[24],1.08
same,glycan array binding signal (z-score),[25],-0.122
same,glycan array binding signal (z-score),[26],-0.055
same,glycan array binding signal (z-score),[27],-0.08
same,glycan array binding signal (z-score),[28],-0.08
same,glycan array binding signal (z-score),[29],-0.111
